Each structure is given as a SMILES string. Where a name gives a salt, the structure may show the parent alone. The list shows a part of the results. Rule as the data show it: active = -2 or less and inactive = the rest. Repeats are few or missing, and single values can be far off.
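Also: nuclei counted from DAPI counterstain by automated high-content image analysis, four fields per well at ×20 in 384-well plates, with sequential b-score then z-score normalization.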

The experiment has as its system hPSC-derived cortical neurons (WA09). The experiment can be described thus: nuclei number (viability) z-score; higher = more surviving cells. Conditions: 5 µM; treatment: days 7-14 after plating, readout day 21.
Regarding `CC(COc1ccccc1)N(CCCl)Cc1ccccc1` (stereo not drawn) [Phenoxybenzamine HCl], the “nuclei number (z-score)” value was inactive: -0.512.

For `Nc1ncn([C@@H]2O[C@H](CO)[C@@H](O)[C@H]2O)c(=O)n1` [Azacitidine], the “nuclei number (z-score)” value is inactive: 0.0965.

Regarding `CCCNC(C)C(=O)Nc1ccccc1C` (stereo not drawn) [Prilocaine], the “nuclei number (z-score)” value was inactive: -0.0436.

Regarding `COc1ccc(CN(CCN(C)C)c2ccccn2)cc1` [Pyrilamine Maleate], the “nuclei number (z-score)” value was inactive: 0.924.

Consider `CC(=O)Nc1cccc2c1c(Sc1ccc(Cl)cc1)c(C)n2CC(=O)O`, for which the “nuclei number (z-score)” value is inactive: 1.3.

For the compound `COc1cccc(-c2ccc(NC(=O)C3=C(C(=O)O)CCC3)c(F)c2)c1` [Vidofludimus], the “nuclei number (z-score)” value is inactive: 0.0164.

As to `Clc1cccc(-c2nnnn2Cc2cccnc2)c1Cl`, the “nuclei number (z-score)” value was inactive: -0.0132.

Take `C/C=C1/[C@H](O[C@@H]2O[C@H](CO)[C@@H](O)[C@H](O)[C@H]2O)OC=C(C(=O)OC)[C@H]1CC(=O)OCCc1ccc(O)c(O)c1` [Oleuropein]: the “nuclei number (z-score)” value is inactive: -0.261.

Take `Cc1cc(=O)oc2cc(O)ccc12` [4-Methylumbelliferone (4-MU)]: the “nuclei number (z-score)” value is inactive: 1.49.

Consider `O=C(NC1CCN(CCCCC2(C(=O)NCC(F)(F)F)c3ccccc3-c3ccccc32)CC1)c1ccccc1-c1ccc(C(F)(F)F)cc1` [Lomitapide], for which the “nuclei number (z-score)” value is active: -7.85.

As to `O=C(NC1CCN(CCCCC2(C(=O)NCC(F)(F)F)c3ccccc3-c3ccccc32)CC1)c1ccccc1-c1ccc(C(F)(F)F)cc1` [Lomitapide Mesylate], the “nuclei number (z-score)” value is active: -4.44.

Take `COc1ccc(C(=O)CC2(O)C(=O)Nc3c(Cl)ccc(Cl)c32)cc1` (stereo not drawn): the “nuclei number (z-score)” value is inactive: -0.0853.

Regarding `CC(C)(C)Cn1c(N)nc2ccc(-c3[nH]c(C(C)(C)C)nc3-c3ccc(F)cc3)nc21`, the “nuclei number (z-score)” value is inactive: -0.432.

For the compound `CCCN[C@H]1CCc2nc(N)sc2C1` [Pramipexole 2HCl Monohydrate], the “nuclei number (z-score)” value was inactive: 3.06.

In the case of `CCCN[C@H]1CCc2nc(N)sc2C1` [Pramipexole], the “nuclei number (z-score)” value is inactive: 8.25.

On to `CCOC(=O)c1ccc(OC(=O)CCCCCNC(=N)N)cc1` [Gabexate Mesylate], for which the “nuclei number (z-score)” value was inactive: -1.35.

With `COC1=C(OC)C(=O)C(CCCCCCCCCCO)=C(C)C1=O` [Idebenone], the “nuclei number (z-score)” value is inactive: 0.326.

On to `CCOC(=O)[C@H](CCc1ccccc1)N[C@H]1CCc2ccccc2N(CC(=O)O)C1=O` [Benazepril HCl], for which the “nuclei number (z-score)” value is inactive: -0.271.

Take `Cn1cc(-c2ccc(F)c(C(F)(F)F)c2)nc1C1CCN(c2ncnc3[nH]ncc23)CC1`: the “nuclei number (z-score)” value is inactive: 0.654.

In the case of `O=C(Nc1c[nH]nc1-c1nc2ccc(CN3CCOCC3)cc2[nH]1)NC1CC1`, the “nuclei number (z-score)” value was inactive: 1.42.

For the compound `O=C(c1cccc(Cl)c1F)N1CCN(Cc2cccc(Nc3nccs3)n2)CC1`, the “nuclei number (z-score)” value was inactive: 0.776.

On to `CC(C)[C@H]1C(=O)N[C@@H](CCCNC(=N)N)C(=O)NCC(=O)N[C@@H](CC(=O)O)C(=O)N[C@H](Cc2ccccc2)C(=O)N1C` [Cilengitide], for which the “nuclei number (z-score)” value was inactive: 2.78.

`COc1cccc(NC(=O)/C=C/c2ccc(Cl)cc2)c1`: the “nuclei number (z-score)” value was inactive: -0.441.

For `COc1cc(OC)c2c(=O)[nH]c(-c3cc(C)c(OCCO)c(C)c3)nc2c1`, the “nuclei number (z-score)” value is inactive: 1.06.

`CO/N=C(\C(=O)N[C@@H]1C(=O)N2C(C(=O)O)=C(CSc3nc(=O)c(O)nn3C)CS[C@H]12)c1csc(N)n1` [Ceftriaxone Sodium Trihydrate]: the “nuclei number (z-score)” value was inactive: -0.237.

In the case of `NC(=O)CC[C@@H](N)C(=O)O` [D-glutamine], the “nuclei number (z-score)” value is inactive: 0.707.

Turning to `Cc1ccc(C(=O)Nc2ccc(CN3CCN(C)CC3)c(C(F)(F)F)c2)cc1C#Cc1cnc2cccnn12`, the “nuclei number (z-score)” value was active: -3.85.

`O=C(Nc1cccc2c(=O)cc(-c3nnn[nH]3)oc12)c1ccc(OCCCCc2ccccc2)cc1` [Pranlukast]: the “nuclei number (z-score)” value is inactive: 0.739.

Consider `CC(C)(C)NC[C@H](O)COc1nsnc1N1CCOCC1` [Timolol Maleate], for which the “nuclei number (z-score)” value was inactive: 1.09.

Turning to `NCCCC[C@H](N[C@@H](CCc1ccccc1)C(=O)O)C(=O)N1CCC[C@H]1C(=O)O` [Lisinopril], the “nuclei number (z-score)” value was inactive: 1.24.

On to `Cc1cncc(CN2CCC(=C3c4ccc(Cl)cc4CCc4cccnc43)CC2)c1` [Rupatadine Fumarate], for which the “nuclei number (z-score)” value was inactive: 0.729.

`CS(=O)(=O)c1ccc([C@@H](O)[C@@H](CO)NC(=O)C(Cl)Cl)cc1` [Thiamphenicol]: the “nuclei number (z-score)” value was inactive: -0.132.

For the compound `CNC(=O)c1ccccc1Oc1nc(Nc2cc(OC)c(OC)c(OC)c2)ncc1Br`, the “nuclei number (z-score)” value is inactive: -0.206.

Consider `C[C@]12C=CC(=O)C=C1CC[C@@H]1[C@@H]2[C@@H](O)C[C@@]2(C)[C@H]1CC[C@]2(O)C(=O)CO` [Prednisolone], for which the “nuclei number (z-score)” value was inactive: 1.11.

In the case of `O=c1ncn2nc(Sc3ccc(F)cc3F)ccc2c1-c1c(Cl)cccc1Cl`, the “nuclei number (z-score)” value was inactive: 0.426.

As for `O=c1[nH]cc(F)c(=O)[nH]1` [Fluorouracil (5-Fluoracil_ 5-FU)], the “nuclei number (z-score)” value is inactive: 1.63.

For the compound `N=c1ccn2c(n1)O[C@H]1[C@H](O)[C@@H](CO)O[C@H]12` [Cyclocytidine HCl], the “nuclei number (z-score)” value is inactive: -1.64.

In the case of `CNC(=O)c1ccc2cc([C@@]3(O)CCn4cncc43)ccc2c1` [TAK-700 (Orteronel)], the “nuclei number (z-score)” value was inactive: -1.67.

`CC(=O)Oc1cc(C(F)(F)F)ccc1C(=O)O` [Triflusal]: the “nuclei number (z-score)” value is inactive: -0.113.

Regarding `Cc1cccc(Nc2nc(NC3CCCCC3N)ncc2C(N)=O)c1` (stereo not drawn), the “nuclei number (z-score)” value is inactive: 0.0987.

As for `C[C@@H]1CC(=O)NN=C1c1ccc(NN=C(C#N)C#N)cc1` [Levosimendan], the “nuclei number (z-score)” value was inactive: -0.742.

On to `CN(C)CCCNC(=O)c1ccc(-c2cc(O)c3ncccc3c2)cc1`, for which the “nuclei number (z-score)” value was inactive: 0.676.

For `C[C@@H](c1ncncc1F)[C@](O)(Cn1cncn1)c1ccc(F)cc1F` [Voriconazole], the “nuclei number (z-score)” value was inactive: 0.0924.

Turning to `Cc1c(NC(=O)c2ccc(C(C)(C)C)cc2)cccc1-c1cn(C)c(=O)c(Nc2ccc(C(=O)N3CCOCC3)cc2)n1`, the “nuclei number (z-score)” value was inactive: 1.89.

Turning to `O=C(O)Cc1ccccc1Nc1c(Cl)cccc1Cl` [Diclofenac Diethylamine], the “nuclei number (z-score)” value is inactive: 0.632.

Take `O=C(O)Cc1ccccc1Nc1c(Cl)cccc1Cl` [Diclofenac Potassium]: the “nuclei number (z-score)” value is inactive: 1.4.

Turning to `O=C(O)Cc1ccccc1Nc1c(Cl)cccc1Cl` [Diclofenac Sodium], the “nuclei number (z-score)” value is inactive: -0.141.

In the case of `CC[C@@]1(O)C(=O)OCc2c1cc1n(c2=O)Cc2cc3cc(O)ccc3nc2-1` [(S)-10-Hydroxycamptothecin], the “nuclei number (z-score)” value is inactive: -0.888.

As to `CC[C@H](C)n1cc(C)c2c(C(=O)NCc3c(C)cc(C)[nH]c3=O)cc(-c3ccc(N4CCNCC4)nc3)cc21`, the “nuclei number (z-score)” value was inactive: -0.00847.

In the case of `Nc1cccc(S(=O)(=O)N2CCCN(S(=O)(=O)c3ccc4c(c3)OCCO4)CC2)c1`, the “nuclei number (z-score)” value was active: -2.66.

On to `Cc1cccc(-c2[nH]c(C(C)(C)C)nc2-c2ccc3nccnc3c2)n1`, for which the “nuclei number (z-score)” value was inactive: 5.12.

For `CN1CCN(CCCNc2ncc(Cl)c(-c3cc4c(C(=O)NC5CC5)cccc4s3)n2)CC1`, the “nuclei number (z-score)” value is inactive: -0.0302.

For the compound `NC(=O)c1noc([C@H](CCCC2CCCCC2)CC(=O)NO)n1`, the “nuclei number (z-score)” value is inactive: -0.134.

Consider `NC1(c2ccc(-c3nc4ccn5c(=O)[nH]nc5c4cc3-c3ccccc3)cc2)CCC1`, for which the “nuclei number (z-score)” value was inactive: -0.965.

As to `Cc1cnc(Nc2ccc(N3CCN(C)CC3)cc2)nc1Nc1cccc(S(=O)(=O)NC(C)(C)C)c1`, the “nuclei number (z-score)” value was inactive: -1.02.

`OC[C@@H](O)[C@@H](O)CO` [Erythritol]: the “nuclei number (z-score)” value was inactive: 0.193.

Regarding `O=C1NC(=O)/C(=C/c2ccc(-c3ccc(F)cc3O)o2)S1`, the “nuclei number (z-score)” value is inactive: 2.12.

On to `CC(C)CCN1c2nc(Nc3cc(F)c(O)c(F)c3)ncc2N(C)C(=O)C1C` (stereo not drawn), for which the “nuclei number (z-score)” value is inactive: 0.514.

Turning to `CCn1c(=O)c(-c2ccc(-c3cncs3)cc2Cl)cc2cnc(Nc3ccc(N4CCN(C)CC4)cc3)nc21`, the “nuclei number (z-score)” value is inactive: -1.86.

Regarding `NS(=O)(=O)c1cc2c(cc1Cl)N=C(CSCc1ccccc1)NS2(=O)=O` [Benzthiazide], the “nuclei number (z-score)” value is inactive: -0.508.

Consider `Nc1ccc(S(=O)(=O)Nc2ncccn2)cc1` [Sulfadiazine], for which the “nuclei number (z-score)” value was inactive: 1.1.

Consider `Nc1ccc(S(=O)(=O)Nc2ncccn2)cc1` [Sodium sulfadiazine], for which the “nuclei number (z-score)” value is inactive: 2.03.

`CCCC(C)NC(=O)c1ccc(Cl)c(Cl)c1` (stereo not drawn): the “nuclei number (z-score)” value is inactive: 0.343.

Take `CNC1CCC(N(Cc2cccc(-c3ccncc3)c2)C(=O)c2sc3ccccc3c2Cl)CC1` (stereo not drawn) [Smoothened Agonist (SAG) HCl]: the “nuclei number (z-score)” value was inactive: -0.668.

For the compound `CC(C)[C@H](C(=O)Nc1ccc(C(=O)NO)cc1)c1ccccc1`, the “nuclei number (z-score)” value is active: -7.66.

Regarding `C#C[C@]1(OC(C)=O)CC[C@H]2[C@@H]3CCC4=C[C@@H](OC(C)=O)CC[C@@H]4[C@H]3CC[C@@]21C` [Ethynodiol diacetate], the “nuclei number (z-score)” value was inactive: 0.0157.

With `CCOc1cn(-c2ccc(F)cc2C)nc1C(=O)Nc1ccc(Oc2ccnc3cc(OC)c(OC)cc23)c(F)c1`, the “nuclei number (z-score)” value was inactive: -0.239.

Regarding `C#C[C@]1(O)CC[C@H]2[C@@H]3CCC4=CC(=O)CC[C@@H]4[C@H]3CC[C@@]21C` [Norethindrone], the “nuclei number (z-score)” value is inactive: -0.529.

Regarding `O=C(NC[C@H](O)CN1CCc2ccccc2C1)c1ccnc(NC2CCC2)c1`, the “nuclei number (z-score)” value is inactive: 0.438.

Take `C=CCc1cc(OC)c(O)c(C(=O)NCCO)c1` [Alibendol]: the “nuclei number (z-score)” value is inactive: 0.592.

With `CO[C@@]1(NC(=O)C(C(=O)O)c2ccc(O)cc2)C(=O)N2C(C(=O)O)=C(CSc3nnnn3C)CO[C@@H]21` (stereo partly drawn) [Moxalactam Disodium], the “nuclei number (z-score)” value was inactive: 2.69.

For `COc1cc2c(cc1O)CC[C@@H]1[C@@H]2CC[C@]2(C)[C@@H](O)CC[C@@H]12` [2-Methoxyestradiol (2-MeOE2)], the “nuclei number (z-score)” value was inactive: 0.175.

Consider `COc1cc(N2CCN(C)CC2)ccc1Nc1nccc(-c2cn(C)c3cnccc23)n1`, for which the “nuclei number (z-score)” value is active: -6.11.

Values taken from the supplement of paper PMC11348887.
